Laboratory results taken from the supplement of paper PMC4967469.
A lower IC50 marks a more sensitive line; a fit beyond the top or the lowest dose is shown as a bound at that dose. The AUC spans the tested range (256-fold, ending at the top dose) of the same fit: 1 means no effect, lower means more sensitive. For part of these data: An inferred top dose comes from the curve model; the source does not state it. For part of these data: Drugs with an entry number were screened twice under separate entries, and the two screens often disagree.

Experiments:
Assay in all cases: Viability of human cancer cell lines after 72 h of drug (GDSC screen)
Pazopanib = compound: Cc1ccc(Nc2nccc(N(C)c3ccc4c(C)n(C)nc4c3)n2)cc1S(N)(=O)=O [Pazopanib]; conditions: top dose 8 µM
Description: (§1)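 Human cancer cell lines in 384-well plates, medium with 10% serum, drug for 72 h over a 256-fold dose range (nine 2-fold or five 4-fold steps up to the top dose). Adherent lines were fixed and stained with the nucleic acid dye Syto60, suspension lines read with resazurin; signal relative to control wells, capped at 0 and 100%. One two-parameter sigmoid per drug and line, fitted in a mixed model over all curves with the slope shared within a line.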

GDC0941 = compound: CS(=O)(=O)N1CCN(Cc2cc3nc(-c4cccc5[nH]ncc45)nc(N4CCOCC4)c3s2)CC1 [GDC0941]; conditions: top dose 4 µM; screen: GDSC drug entry 1527; top dose inferred
Description: as §1

CEP-701 = compound: C[C@]12O[C@H](C[C@]1(O)CO)n1c3ccccc3c3c4c(c5c6ccccc6n2c5c31)CNC4=O [CEP-701]; conditions: top dose 2 µM; top dose inferred
Description: as §1

AR-42 = compound: CC(C)[C@H](C(=O)Nc1ccc(C(=O)NO)cc1)c1ccccc1 [AR-42]; conditions: top dose 5.12 µM; top dose inferred
Description: as §1

SB 216763 = compound: Cn1cc(C2=C(c3ccc(Cl)cc3Cl)C(=O)NC2=O)c2ccccc21 [SB 216763]; conditions: top dose 10 µM; top dose inferred
Description: as §1

MG-132 = compound: CC(C)C[C@@H](C=O)NC(=O)[C@H](CC(C)C)NC(=O)[C@H](CC(C)C)NC(=O)OCc1ccccc1 [MG-132]; conditions: top dose 1 µM
Description: as §1

A253 (head and neck, adherent)
AUC (Pazopanib): 0.858
IC50 (Pazopanib): 6.29 µM
AUC (GDC0941): 0.988
IC50 (GDC0941): > 4 µM
AUC (CEP-701): 0.875
IC50 (CEP-701): 1.88 µM
AUC (AR-42): 0.86
IC50 (AR-42): 4.11 µM
AUC (SB 216763): 0.986
IC50 (SB 216763): > 10 µM
AUC (MG-132): 0.67
IC50 (MG-132): 0.183 µM

NB6 (neuroblastoma, adherent)
AUC (Pazopanib): 0.891
IC50 (Pazopanib): > 8 µM
AUC (GDC0941): 0.973
IC50 (GDC0941): > 4 µM
AUC (CEP-701): 0.796
IC50 (CEP-701): 1.19 µM
AUC (AR-42): 0.404
IC50 (AR-42): 0.164 µM
AUC (SB 216763): 0.948
IC50 (SB 216763): > 10 µM
AUC (MG-132): 0.888
IC50 (MG-132): > 1 µM

SK-N-DZ (neuroblastoma, adherent)
AUC (Pazopanib): 0.679
IC50 (Pazopanib): 1.57 µM
AUC (GDC0941): 0.892
IC50 (GDC0941): > 4 µM
AUC (CEP-701): 0.633
IC50 (CEP-701): 0.29 µM
AUC (AR-42): 0.708
IC50 (AR-42): 1.22 µM
AUC (SB 216763): 0.979
IC50 (SB 216763): > 10 µM
AUC (MG-132): 0.912
IC50 (MG-132): > 1 µM

BT-474 (breast, adherent)
AUC (Pazopanib): 0.955
IC50 (Pazopanib): > 8 µM
AUC (GDC0941): 0.768
IC50 (GDC0941): 1.68 µM
AUC (CEP-701): 0.842
IC50 (CEP-701): 1.66 µM
AUC (AR-42): 0.769
IC50 (AR-42): 2.17 µM
AUC (SB 216763): 0.982
IC50 (SB 216763): > 10 µM
AUC (MG-132): 0.961
IC50 (MG-132): > 1 µM

NCI-H1581 (large cell lung carcinoma, semi-adherent)
AUC (Pazopanib): 0.879
IC50 (Pazopanib): 7.08 µM
AUC (GDC0941): 0.957
IC50 (GDC0941): > 4 µM
AUC (CEP-701): 0.788
IC50 (CEP-701): 0.8 µM
AUC (AR-42): 0.424
IC50 (AR-42): 0.202 µM
AUC (SB 216763): 0.99
IC50 (SB 216763): > 10 µM
AUC (MG-132): 0.912
IC50 (MG-132): > 1 µM

SCH (stomach, adherent)
AUC (Pazopanib): 0.968
IC50 (Pazopanib): > 8 µM
AUC (GDC0941): 0.827
IC50 (GDC0941): 2.71 µM
AUC (CEP-701): 0.792
IC50 (CEP-701): 0.982 µM
AUC (AR-42): 0.963
IC50 (AR-42): > 5.12 µM
AUC (SB 216763): 0.986
IC50 (SB 216763): > 10 µM
AUC (MG-132): 0.986
IC50 (MG-132): > 1 µM

NCI-H720 (lung carcinoid, suspension)
AUC (Pazopanib): 0.992
IC50 (Pazopanib): > 8 µM
AUC (GDC0941): 0.789
IC50 (GDC0941): 1.61 µM
AUC (CEP-701): 0.735
IC50 (CEP-701): 0.544 µM
AUC (AR-42): 0.949
IC50 (AR-42): > 5.12 µM
AUC (SB 216763): 0.992
IC50 (SB 216763): > 10 µM
AUC (MG-132): 0.988
IC50 (MG-132): > 1 µM

CESS (acute myeloid leukaemia, suspension)
AUC (Pazopanib): 0.984
IC50 (Pazopanib): > 8 µM
AUC (GDC0941): 0.715
IC50 (GDC0941): 0.913 µM
AUC (CEP-701): 0.818
IC50 (CEP-701): 0.926 µM
AUC (AR-42): 0.254
IC50 (AR-42): 0.0718 µM
AUC (SB 216763): 0.988
IC50 (SB 216763): > 10 µM
AUC (MG-132): 0.672
IC50 (MG-132): 0.174 µM

Mo-T (hairy cell leukaemia, suspension)
AUC (Pazopanib): 0.972
IC50 (Pazopanib): > 8 µM
AUC (GDC0941): 0.837
IC50 (GDC0941): 2.76 µM
AUC (CEP-701): 0.758
IC50 (CEP-701): 0.71 µM
AUC (AR-42): 0.41
IC50 (AR-42): 0.18 µM
AUC (SB 216763): 0.98
IC50 (SB 216763): > 10 µM
AUC (MG-132): 0.85
IC50 (MG-132): 0.781 µM

NCI-H1092 (small cell lung carcinoma, suspension)
AUC (Pazopanib): 0.99
IC50 (Pazopanib): > 8 µM
AUC (GDC0941): 0.954
IC50 (GDC0941): > 4 µM
AUC (CEP-701): 0.901
IC50 (CEP-701): > 2 µM
AUC (AR-42): 0.48
IC50 (AR-42): 0.282 µM
AUC (SB 216763): 0.982
IC50 (SB 216763): > 10 µM
AUC (MG-132): 0.785
IC50 (MG-132): 0.431 µM

8-MG-BA (glioma, adherent)
AUC (Pazopanib): 0.943
IC50 (Pazopanib): > 8 µM
AUC (GDC0941): 0.656
IC50 (GDC0941): 0.655 µM
AUC (CEP-701): 0.493
IC50 (CEP-701): 0.12 µM
AUC (AR-42): 0.54
IC50 (AR-42): 0.408 µM
AUC (SB 216763): 0.923
IC50 (SB 216763): > 10 µM
AUC (MG-132): 0.652
IC50 (MG-132): 0.16 µM

MFH-ino (soft tissue, adherent)
AUC (Pazopanib): 0.88
IC50 (Pazopanib): > 8 µM
AUC (GDC0941): 0.857
IC50 (GDC0941): > 4 µM
AUC (CEP-701): 0.593
IC50 (CEP-701): 0.235 µM
AUC (AR-42): 0.607
IC50 (AR-42): 0.662 µM
AUC (SB 216763): 0.978
IC50 (SB 216763): > 10 µM
AUC (MG-132): 0.667
IC50 (MG-132): 0.199 µM

ATN-1 (T-cell lymphoblastic leukaemia, suspension)
AUC (Pazopanib): 0.943
IC50 (Pazopanib): > 8 µM
AUC (GDC0941): 0.719
IC50 (GDC0941): 0.996 µM
AUC (CEP-701): 0.302
IC50 (CEP-701): 0.0363 µM
AUC (AR-42): 0.397
IC50 (AR-42): 0.171 µM
AUC (SB 216763): 0.983
IC50 (SB 216763): > 10 µM
AUC (MG-132): 0.977
IC50 (MG-132): > 1 µM

LB2241-RCC (kidney, adherent)
AUC (Pazopanib): 0.949
IC50 (Pazopanib): > 8 µM
AUC (GDC0941): 0.518
IC50 (GDC0941): 0.282 µM
AUC (CEP-701): 0.512
IC50 (CEP-701): 0.135 µM
AUC (AR-42): 0.776
IC50 (AR-42): 2.3 µM
AUC (SB 216763): 0.818
IC50 (SB 216763): 6.52 µM
AUC (MG-132): 0.646
IC50 (MG-132): 0.167 µM

RH-1 (rhabdomyosarcoma, adherent)
AUC (Pazopanib): 0.964
IC50 (Pazopanib): > 8 µM
AUC (GDC0941): 0.702
IC50 (GDC0941): 0.826 µM
AUC (CEP-701): 0.542
IC50 (CEP-701): 0.16 µM
AUC (AR-42): 0.338
IC50 (AR-42): 0.123 µM
AUC (SB 216763): 0.991
IC50 (SB 216763): > 10 µM
AUC (MG-132): 0.95
IC50 (MG-132): > 1 µM

REH (B-cell leukaemia, suspension)
AUC (Pazopanib): 0.947
IC50 (Pazopanib): > 8 µM
AUC (GDC0941): 0.532
IC50 (GDC0941): 0.304 µM
AUC (CEP-701): 0.597
IC50 (CEP-701): 0.228 µM
AUC (AR-42): 0.39
IC50 (AR-42): 0.162 µM
AUC (SB 216763): 0.974
IC50 (SB 216763): > 10 µM
AUC (MG-132): 0.987
IC50 (MG-132): > 1 µM

COLO-320-HSR (large intestine, suspension)
AUC (Pazopanib): 0.982
IC50 (Pazopanib): > 8 µM
AUC (GDC0941): 0.757
IC50 (GDC0941): 1.22 µM
AUC (CEP-701): 0.902
IC50 (CEP-701): > 2 µM
AUC (AR-42): 0.475
IC50 (AR-42): 0.276 µM
AUC (SB 216763): 0.991
IC50 (SB 216763): > 10 µM
AUC (MG-132): 0.917
IC50 (MG-132): > 1 µM
